We go through 46 molecules from the supplement of paper PMC11348887.

Each structure is given as a SMILES string. Structures can show the parent of a compound that is named as a salt. Some of the results follow. Cut-off read from the data, not from the text of the source: active = -2 or less and inactive = the rest. Most values come without repeats; read them as rough.
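Note: nuclei counted from DAPI counterstain by automated high-content image analysis, four fields per well at ×20 in 384-well plates, with sequential b-score then z-score normalization.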

This assay concerns hPSC-derived cortical neurons (WA09). Briefly: nuclei number (viability) z-score; higher = more surviving cells. The settings on record: 5 µM; treatment: days 7-14 after plating, readout day 21.
Consider `CCOC(=O)CC(=O)N1CCSC1COc1ccccc1OC` (stereo unspecified) [Moguisteine], for which the “nuclei number (z-score)” value was inactive: 0.00726.
As for `CCNC1(C(N)=O)CCN(c2ncnc3c2nc(-c2ccccc2Cl)n3-c2ccc(Cl)cc2)CC1`, the “nuclei number (z-score)” value was inactive: -0.708.
For `CCC(C)(C)C(=O)O[C@H]1C[C@@H](C)C=C2C=C[C@H](C)[C@H](CC[C@@H]3C[C@@H](O)CC(=O)O3)[C@H]21` [Simvastatin] the value was inactive: 0.381.
For the molecule `O=C(CSc1nc2c(c(=O)n1-c1ccccc1)SCC2)Nc1ccc(-c2ccccc2)cn1`, the “nuclei number (z-score)” value is inactive: 4.13.
For `O=C(c1ccc(F)c(F)c1Nc1ccc(I)cc1F)N1CC(O)([C@@H]2CCCCN2)C1` [Cobimetinib (GDC-0973_ RG7420)] the value was inactive: -0.0797; for `O=S(=O)(c1cccc2cnccc12)N1CCCNCC1` [Fasudil (HA-1077) HCl], inactive: 2.53; for `COc1cc2nc(N3CCCN(C)CC3)nc(NC3CCN(Cc4ccccc4)CC3)c2cc1OC`, active: -5.52.
Consider `CC(C)c1cnn2c(NCc3ccccc3)cc(NCCCCCCN)nc12`, for which the “nuclei number (z-score)” value was inactive: -1.27.
As to `C[C@H](Nc1ncnc2nc[nH]c12)c1cc2cccc(Cl)c2c(=O)n1-c1ccccc1`, the “nuclei number (z-score)” value is inactive: 0.619.
As for `CCC1(C)CC(=O)NC1=O` (stereo unspecified) [Ethosuximide], the “nuclei number (z-score)” value is inactive: -0.106.
Under `CC(C)(O)CC(=O)NCCn1ccc2ncnc(Nc3ccc(Oc4cccc(C(F)(F)F)c4)c(Cl)c3)c21` stands inactive: 0.104.
For `C[N+](C)(CCOc1ccccc1)Cc1ccccc1.O=C([O-])c1cc2ccccc2cc1O` [Bephenium Hydroxynaphthoate] the value was inactive: 0.575.
For `CC(NCCc1ccc(O)cc1)C(O)c1ccc(O)cc1` (stereo unspecified) [Ritodrine HCl] the value was inactive: 0.111; for `Cc1c(C(=O)N2CCOc3ccc(-c4ccc(N)nc4)cc3C2)ccc(S(C)(=O)=O)c1F`, inactive: -0.414; for `CN1CCC(=C2c3ccccc3CCn3c(C=O)cnc32)CC1` [Alcaftadine], inactive: 10.9.
`Cc1cc(F)c(C(=O)Nc2cccc(-c3nncn3C(C)C)n2)cc1-n1cnc(C2CC2)c1` [Selonsertib (GS-4997)]: the “nuclei number (z-score)” value was inactive: 0.306.
Under `CCC(=O)O[C@]1(C(=O)SCF)[C@H](C)C[C@H]2[C@@H]3C[C@H](F)C4=CC(=O)C=C[C@]4(C)[C@@]3(F)[C@@H](O)C[C@@]21C` [Fluticasone propionate] stands inactive: 0.703; under `Nc1ccc(/N=N/c2ccccc2)c(N)n1` [Phenazopyridine HCl], inactive: 0.878; under `CC(C)[C@H](O)C(=O)N[C@@H](C)C(=O)N[C@@H]1C(=O)N(C)CCc2ccccc21`, inactive: 0.353.
Take `Cc1cn(-c2cc(NC(=O)c3ccc(C)c(Nc4nccc(-c5cnccn5)n4)c3)cc(C(F)(F)F)c2)cn1` [Radotinib]: the “nuclei number (z-score)” value is inactive: -0.977.
On to `Cc1[nH]nc2ccc(-c3cncc(OC[C@@H](N)Cc4ccccc4)c3)cc12`, for which the “nuclei number (z-score)” value is active: -8.86.
For `COc1cc(CCc2cc(NC(=O)c3ccc(N4CC(C)NC(C)C4)cc3)n[nH]2)cc(OC)c1` (stereo unspecified) the value was inactive: -0.851; for `Nc1ccc(C(=O)O)c(O)c1` [Sodium 4-Aminosalicylate], inactive: -0.0737; for `O=C1Nc2ccc(Cl)cc2[C@@](C#CC2CC2)(C(F)(F)F)O1` [Efavirenz], inactive: 0.13.
Take `CCCCN1CCCC[C@H]1C(=O)Nc1c(C)cccc1C` [Levobupivacaine HCl]: the “nuclei number (z-score)” value is inactive: 0.607.
For `CCCc1cc2c(N3CCN(C4=NCC(C)(C)S4)CC3)ncnc2s1` [MI-2 (Menin-MLL Inhibitor)] the value was active: -3.95; for `CNCc1ccc(C)c(NC(=O)c2ccc(Nc3nc(-c4ccccc4)c4ccccc4n3)cc2)c1`, active: -3.47; for `Cc1cccc(C)c1OCC(=O)N[C@@H](Cc1ccccc1)[C@@H](O)C[C@H](Cc1ccccc1)NC(=O)[C@H](C(C)C)N1CCCNC1=O` [Lopinavir], inactive: -0.0303.
As for `Clc1ccc(C(c2ccccc2Cl)C(Cl)Cl)cc1` (stereo unspecified) [Mitotane], the “nuclei number (z-score)” value is inactive: -0.817.
As to `O=C1O[C@H]([C@@H](O)CO)C(O)=C1O` [Vitamin C], the “nuclei number (z-score)” value was inactive: 0.738.
On to `C[S+](CC[C@H](N)C(=O)[O-])C[C@H]1O[C@@H](n2cnc3c(N)ncnc32)[C@H](O)[C@@H]1O` (stereo partly specified) [Ademetionine disulfate tosylate], for which the “nuclei number (z-score)” value is inactive: -0.0111.
On to `O=C(O)c1ccccc1Nc1cccc(C(F)(F)F)c1` [Flufenamic acid], for which the “nuclei number (z-score)” value was inactive: 0.193.
On to `O=C(O)Cn1nnc(-c2cc(N3CCC(Oc4cc(F)ccc4Br)CC3)no2)n1`, for which the “nuclei number (z-score)” value is inactive: 0.316.
Take `Cc1csc(-c2nnc(Nc3ccc(Oc4ncccc4-c4ccnc(N)n4)cc3)c3ccccc23)c1`: the “nuclei number (z-score)” value was inactive: 1.17.
Under `Nc1nc2c(ncn2COC(CO)CO)c(=O)[nH]1` [Ganciclovir] stands inactive: 0.501; under `CCCCCCCCCCCCCCCC(=O)OC[C@H](O)[C@H]1OC(=O)C(O)=C1O` [L-Ascorbyl 6-palmitate], inactive: 0.632.
Turning to `Cc1nc2c([nH]1)-c1ccccc1N(C(=O)c1ccc(NC(=O)c3ccccc3-c3ccccc3)cc1)CC2` [Conivaptan HCl], the “nuclei number (z-score)” value was inactive: 2.21.
Under `CNCCc1ccccn1` [Betahistine 2HCl] stands inactive: -0.856; under `CN(C)C(=N)NC(=N)N` [Metformin HCl], inactive: -0.0838; under `COc1ccc2c(Oc3ccc(NC(=O)c4c(C)n(CC(C)(C)O)n(-c5ccccc5)c4=O)nc3)ccnc2c1`, inactive: 1.98.
As to `COc1c(C)cnc(Cn2cnc3c(Cl)nc(N)nc32)c1C`, the “nuclei number (z-score)” value is active: -3.52.
On to `c1ccc2c(CCNc3ccc(Nc4ccncc4)cc3)c[nH]c2c1`, for which the “nuclei number (z-score)” value is inactive: 0.347.
Under `NCCCCCC(=O)O` [_6-__-_Aminocaproic acid] stands inactive: 0.0202; under `CC(C)CCNC(=O)[C@H](CC(C)C)NC(=O)[C@H]1O[C@@H]1C(=O)O` [Loxistatin Acid (E-64C)], inactive: 1.12.
For `O=C(Cc1ccccc1)Nc1nnc(CCSCCc2nnc(NC(=O)Cc3ccccc3)s2)s1`, the “nuclei number (z-score)” value was inactive: 0.554.
For `COc1ccc(-c2nc(N3CCOCC3)c3sc(CN(C)c4ncc(C(=O)NO)cn4)cc3n2)cn1` the value was active: -5.35.
